# Results taken from the RNAGym collection of RNA variant scans (doi:10.7554/elife.90254).
# The source gives no read counts; variants with many changes may rest on few reads.
# B1: LINE1-mini (parent)
# chain: GGCAGAGCUCAACACAGCGUGGCAAAGUGGCUGUGGCUAGACUGCC
# Variants of: B1
# Experiment: self-cleavage, relative activity (ratio to wild type); higher = more cleavage; in vitro, sequencing; the parent is a self-cleaving ribozyme
row,Variant,self-cleavage
1,A16G G29A C31A,0.01
2,C18A U34C G35A U38G C46U,0.05
3,A12C C15U C31G,0.01
4,C8A A12G C23U A41U,0.06
5,C8A G19C C37A,0.04
6,C3G A4G C8U G29U A41U,0.65
7,C13G G36A A39U,0.05
8,G17U U38A G44A,0.08
9,G1U A4C G29A U32A G44U,0.02
10,G7A A12G G21C C23A A26C G27A U38C C45A,0.04
11,G7A C8A G19A U20C A39C,0.03
12,G2C G17U G29A,0.03
13,G1C C23A G30A,0.08
14,A6G G7C C13A A25U G30U G36A,0.09
15,G1A C13U C45U,0.11
16,G7A A11U G35A,0.02
17,G5U A6C G21C G29C G35A C45U,0.05
18,C10U G30C U34A C45U,0.05
19,C18U G19C C23A,0.53
20,C15A A24C U34G,0
21,A11G A25U G40C C46U,0
22,A24C U34C G36U G44C,0.03
23,G5C A25G U34G G35U,0.35
24,C3A G22A G33U C46G,0.18

row,Variant,self-cleavage
1,A14C U28C A39C G40U,0.02
2,C8U A12G A16C U32C U34G,0.06
3,U20C U34G C37G G40U,0
4,C8G C15G U20C U28C A41C,0.03
5,C3G A25U U43C,0.14
6,C3U C8G U32C G35C,0.02
7,G2A U9A C15G G27A,0.59
8,C13A A16U G21C G33A U34C C37G,0.02
9,A6G G17A G19C A41G,0.02
10,G22C C31A U38G,0.01
11,G5A U9A U32A,0.19
12,G5A G22A C31G,0.04
13,A4C G21A C31U,0.02
14,A6C C8G U34C G44A,0.02
15,G2U U9G A11G U34C,0.01
16,A4G G7C A14U A24U G27A,0.18
17,G5U G21A C45A,0.08
18,A4G G29U G40C,0.11
19,A6U C13A C23A G33A U34A,0.06
20,G7U U9C G21C U28G,0.01
21,A11G C13G C15U A25C A39G G40U,0.04
22,G1C C13U A39U,0
23,A12G C13U G30U C31G G35U,0.04
24,U20G G21A C31G G33C G36C A41U,0.03

row,Variant,self-cleavage
1,A4C U9G C37U,0.06
2,G7U A12U G33C U34C,0.07
3,G19U U34G A39C,0.01
4,C8A G19A C42U,0.08
5,A6C C15A G36C G40A,0.03
6,A26U G29C C42U C46G,0.03
7,G1U C15G U28A C31U,0
8,G2A A4C G35A U38C,0.19
9,G2C G22U C23A U43A,0.05
10,U9G A12C G22A,0.01
11,G7C C13A A16G C18G,0.06
12,A6C A26U G29A G30C,0.21
13,C3U A6U C42A G44U,0.15
14,C8G U28C G40U,0.04
15,C23G C31A G44C,0.06
16,A6C C8G C46A,0
17,U28G G30C C42U,0.04
18,G1A A12G C46A,0.1
19,C10U C18U G21C G33C C45G C46G,0.02
20,G7U A25G C45U,0.06
21,G2C G19A G33C G35C A39C,0.07
22,C15G A26G C31G,0.01
23,C10U C13A G29U U43C,0.02
24,G1U C3G A14G C15U,0.37

row,Variant,self-cleavage
1,A16G C18U G30A G36A A39C C45A,0.02
2,G2U A4U A16U,0.08
3,U32G C45U C46U,0.06
4,G1U C8U C10G C13G A24C A39U,0
5,A4G U9G G27C C42U,0.01
6,G7U U34C G36U,0.03
7,G17U A25G G35A,0.02
8,G21C C37A G44U,0.03
9,G5A C10A G29A C37G,0.06
10,G5A C13A A14G G35U,0.07
11,U20G G30U G40A,0.04
12,C8U G30C G36C A39G,0.01
13,C3G C23U A41G,0.03
14,G7A C10U G22C G35C,0.03
15,G1U A16C G40C,0.03
16,G1A G5C C13U G19C A25U,0.06
17,A6U C8G A11G C45A,0.04
18,A6G U28G G29A C42A,0.08
19,C3U C15G C31U U38C,0.03
20,C13G G17A A24C C31U C37U C45A,0
21,G5U G35U G40A,0.02
22,G1C C15A C46G,0.03
23,G2A A6U A12U C37G,0.18
24,G7A A11U A16U A41U,0.03

row,Variant,self-cleavage
1,G7U G27A C31G,0.02
2,A4U C13A A14G G17A,0.14
3,G1U G2C C13U U20A,0.09
4,A4C C13A C31G,0.31
5,A14G G27U U28G,0.35
6,C3G C42U G44A,0.28
7,G2C U28C C31U A41U,0.04
8,C3U A14C A24U G33U,0.11
9,G5A A16G G21U G22A U28G,0.07
10,C8U A12U A14G G27C A41G,0.02
11,G17A A25G C45G,0.02
12,G5A C13G G27A A41C,0.05
13,C3A A12U A14G C23U G44U,1.13
14,G1U G5U C10U G19U,0.02
15,A25G U28A A41C,0.04
16,C18G G36A C37U,0.01
17,U20G G33A G44U,0
18,C3G G5C A11C,0.06
19,A11U A14U C23U,0.03
20,C8A C13G A16G G21A G40U U43C,0.03
21,G1U A14U A39G C42G,0.08
22,A11C G17C G30U,0
23,G7C C23G U32A,0.08
24,A11G A16C C18A G22A,0

row,Variant,self-cleavage
1,G1C A11G G40A,0
2,G1U A4C C10A C15U G35A,0.01
3,A24C G29U U34C C42U,0.01
4,U9A U20C G21U C31A G40U,0.06
5,U20C G30U C37U C46A,0.02
6,C3A G5C G17C G40C,0.11
7,G7U C23A U43C,0.06
8,U28C G30C C42G,0.02
9,U32A C37A A41G,0
10,G5U G7A C15A,0.24
11,C18A G22A G27U G33U,0.05
12,U9G G30U C31G,0.01
13,G1U G2C C10A G19U A26G,0.01
14,C15U G17C G27C G35U C45A,0.04
15,A6G C23U U28G,0.09
16,C3G C8A G36A U43A,0.22
17,C8U C10A C13G,0.06
18,G2C C3A C10G A26C C31U,0.04
19,G2C G22A U28G,0.04
20,C3A G5A C8A A14G A26C G33U U34G,0.87
21,A39U C42U G44U,0.02
22,G1A C8U C46A,0.84
23,G40A A41G C42A C46A,0.03
24,U9C A11U U38A,0.01

row,Variant,self-cleavage
1,C13U C42G C45A,0.05
2,A12U C13A U38G C42G,0
3,G2U C8A C13G C23A A24U,0.01
4,G5U C18U G22C,0.04
5,C10G A11C A25G,0.01
6,G7C A11G C23A U38A C42U,0.01
7,C23U G33A G44U,0.09
8,G17U G22C A24G U28A,0.34
9,G27U U32G C37A,0.08
10,G5A C13G C18U C23A,0.2
11,C18G C31U G44U,0.05
12,G7C C31G G33A C37G,0.02
13,A6U G7U C23A A24G C46A,0.07
14,G1U U9G A11U G36C A39C,0.01
15,C8A C10U A11C,0.01
16,A12C G21C C37G,0.01
17,C3G G5U U9C A11G G19C C31A,0.01
18,A6G U9A G17A G29C G40C C42G,0.02
19,U9C C13A G21A U38G,0.04
20,G1C G29U U38A G40U,0
21,G5A C13G U20A,0.26
22,C3G C8U G21U,0.11
23,U9A A26C U28A G33U A41C U43C,0.04
